According to paper PMC4336329 (PLoS ONE, 2015):
Out of some 310,000 compounds screened, about 2,200 (0.71%) showed an effect of 50% or more. Effects have a minus sign here. Some of the results follow.

What follows are compounds tested against human ether-à-go-go-related gene (hERG) potassium channel (human, UniProt Q12809) (assay: primary screen, population patch clamp on CHO cells stably expressing hERG).
Chain of human ether-à-go-go-related gene (hERG) potassium channel (Q12809 whole entry, looked up): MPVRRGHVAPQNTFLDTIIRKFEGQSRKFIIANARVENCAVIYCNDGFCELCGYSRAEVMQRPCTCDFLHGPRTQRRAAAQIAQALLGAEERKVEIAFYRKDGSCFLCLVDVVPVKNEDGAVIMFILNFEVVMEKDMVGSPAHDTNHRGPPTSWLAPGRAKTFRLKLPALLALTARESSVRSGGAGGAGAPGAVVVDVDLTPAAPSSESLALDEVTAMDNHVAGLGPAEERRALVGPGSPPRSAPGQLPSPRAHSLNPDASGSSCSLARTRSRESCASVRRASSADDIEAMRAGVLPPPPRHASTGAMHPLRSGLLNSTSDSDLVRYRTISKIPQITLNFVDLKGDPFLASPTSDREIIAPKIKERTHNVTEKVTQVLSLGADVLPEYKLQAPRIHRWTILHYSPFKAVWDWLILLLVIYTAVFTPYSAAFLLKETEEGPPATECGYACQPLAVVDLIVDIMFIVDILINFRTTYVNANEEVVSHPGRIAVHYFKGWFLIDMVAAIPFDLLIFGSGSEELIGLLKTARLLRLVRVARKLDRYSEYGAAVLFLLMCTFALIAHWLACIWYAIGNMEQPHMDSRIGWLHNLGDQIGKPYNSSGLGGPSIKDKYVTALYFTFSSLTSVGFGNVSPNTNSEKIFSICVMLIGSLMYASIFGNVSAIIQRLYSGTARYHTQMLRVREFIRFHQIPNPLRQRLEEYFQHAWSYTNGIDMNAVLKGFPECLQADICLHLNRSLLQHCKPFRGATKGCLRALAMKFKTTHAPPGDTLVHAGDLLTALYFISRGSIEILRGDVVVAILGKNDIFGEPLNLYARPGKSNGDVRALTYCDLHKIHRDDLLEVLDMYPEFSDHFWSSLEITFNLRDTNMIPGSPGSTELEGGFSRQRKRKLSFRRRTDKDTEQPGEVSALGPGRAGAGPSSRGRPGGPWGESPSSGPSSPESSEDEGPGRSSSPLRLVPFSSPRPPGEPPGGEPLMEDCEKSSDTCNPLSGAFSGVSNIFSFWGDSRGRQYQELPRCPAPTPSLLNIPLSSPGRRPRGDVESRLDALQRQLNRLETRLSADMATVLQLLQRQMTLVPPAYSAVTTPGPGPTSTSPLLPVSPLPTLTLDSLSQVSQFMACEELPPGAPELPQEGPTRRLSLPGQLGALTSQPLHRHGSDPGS

Row | SMILES | hERG current change (%, negative = inhibition) at 1uM
1 | Cc1ccc(NC(=O)C2CCCN2c2nn3c(=O)cc(C)nc3s2)cc1 (stereo not shown) | 3.7%
2 | N#Cc1c(NC(=O)c2ccc(Cn3cc(Br)cn3)o2)sc2c1CCCCCC2 | 2.08%
3 | COc1ccccc1-c1n[nH]c(=S)n1Cc1ccccc1 | 14.5%
4 | Cc1nc(-c2ccccn2)nc(SCC(=O)c2ccccc2)c1Cl | 9.36%
5 | O=C1/C(=C\c2ccc(O)cc2)SC(=S)N1Cc1ccccc1 | 19.3%
6 | CSCCC(NC(=O)c1ccco1)C(=O)N(C)CC(=O)Nc1c(Cl)cccc1Cl (stereo not shown) | 13%
7 | O=C(NCc1ccc2c(c1)OCO2)c1ccccn1 | 6.73%
8 | CCn1cc(C(=O)O)c(=O)c2cc(F)c(N3CCN(C(=S)Nc4ccc(OC)cc4)CC3)cc21 | 22.2%
9 | CCCCN(C)S(=O)(=O)c1ccc(C(=O)Nc2nnc(-c3cccs3)o2)cc1 | 11.3%
10 | COc1ccc(CN2CCN(Cc3cccn3-c3ncccn3)CC2CCO)c(C)c1C (stereo not shown) | -80.4%
11 | Cc1ccc(N2CC(C(=O)Nc3nnc(SCC(=O)Nc4cc(C)on4)s3)CC2=O)cc1 (stereo not shown) | 25.3%
12 | COc1cccc(CC(NC(C)=O)C(=O)NC2CCN(c3nc(C)cc(C)c3C#N)CC2)c1 (stereo not shown) | 6.32%
13 | CCN(CC)CCCn1c2c(c(SCC(=O)Nc3cccc(C)c3C)nc1=O)CCC2 | -5.07%
14 | CCN(CC)C(=O)Cc1c(OC)ccc2cc(Br)ccc12 | -19.3%
15 | CCOc1ccc(Nc2cc(=O)[nH]c(=O)[nH]2)cc1 | 15.8%
16 | COc1cc2c(cc1OC)CN(C(=O)c1cc(S(=O)(=O)N3CCOCC3)c(Cl)cc1Cl)CC2 | 9.54%
17 | Cc1cccc(NC(=S)NN(Cc2ccccc2)c2ccccc2)c1C | 10.4%
18 | CC(=O)/C(=N\Nc1ccccc1Cl)Sc1nnc(-c2ccccc2)n1-c1ccccc1 | 6.13%
19 | Cc1cc(C)nc(NS(=O)(=O)c2ccc(NC(=O)Cc3ccc(F)cc3)cc2)n1 | 11.6%
20 | CCOC(=O)c1c(C)[nH]c(C)c1C(=O)COC(=O)CNC(=O)C1CCCCC1 | 2.62%
21 | CC(=O)Nc1ccc(S(=O)(=O)N(C)CC(=O)OCC(=O)N2CCc3ccccc32)cc1 | 13.9%
22 | Cc1cccc(C(=O)N2CCCC(c3nc(-c4ccc(C)o4)no3)C2)c1 (stereo not shown) | -6.12%
23 | CC(OC(=O)CN1C(=O)c2ccccc2C1=O)C(=O)N(C)c1ccccc1 (stereo not shown) | 7.02%
24 | O=C(Cn1c(C(=O)O)cc2ccccc21)c1ccccc1 | 16%
25 | O=C(COC(=O)Cc1cccc(C(F)(F)F)c1)Nc1ccc2[nH]c(=O)[nH]c2c1 | 19.5%
26 | CCOC(=O)Cc1csc(N/N=C\c2cccc(Br)c2)n1 | -1.08%

Row | SMILES | hERG current change (%, negative = inhibition) at 1uM
27 | C=CCN1C(=O)C2C(C(=O)NC3CCCC3)C3(C)C=CC2(O3)C1C(=O)NC1CCCC1 (stereo not shown) | 11.8%
28 | CCc1ccc(N(C(=O)CCC(=O)Nc2cc(C)on2)C(C(=O)NC2CCCC2)c2ccco2)cc1 (stereo not shown) | 6.62%
29 | O=S(=O)(NNC(=S)Nc1ccc(S(=O)(=O)Nc2ncccn2)cc1)c1ccc(Br)cc1 | 6.96%
30 | Cc1cc(C)cc(NC(=O)c2ccc(N3C(=O)C4CCCCC4C3=O)cc2)c1 (stereo not shown) | -15.6%
31 | O=C(O)/C=C\C(=O)O.c1ccc(Sc2ccccc2CN2CCCC2)cc1 | -11.3%
32 | Cc1ccc(CCN2C(=O)CCC2(C)C(=O)NCc2cccnc2)cc1 (stereo not shown) | -3.19%
33 | COc1cc(C(=O)NC2CCCCC2)ccc1OC1CCN(C(C)=O)CC1 | 11.4%
34 | COCc1[nH]nc2c1C(c1ccccc1OC)C(C#N)=C(N)O2 (stereo not shown) | 5.94%
35 | CCOc1cc(C2C3=C(CCCC3=O)N(C)C3=C2C(=O)CCC3)cc(Cl)c1O | 12.7%
36 | COc1c(Br)cc(Br)cc1/C=N/NC(=O)c1ccncc1 | 4.68%
37 | O=C(C1CCN(S(=O)(=O)c2ccccc2)CC1)N1CCN(Cc2ccc3c(c2)OCO3)CC1 | 8.3%
38 | O=C(NCc1ccco1)c1cc(-c2ccccn2)nc2ccccc12 | 7.78%
39 | Cc1cc2ccccn2c1C(=O)Nc1ccc(Cl)cc1 | 2.01%
40 | O=C(NCC(c1cccnc1)N1CCOCC1)c1ccc2c(c1)OCO2 (stereo not shown) | -1.03%
41 | Cc1cc(OC(=O)c2ccc(C(C)(C)C)cc2)c([N+](=O)[O-])c(=O)[nH]1 | 14.7%
42 | CC(C)C[C@@H]1NC(=O)[C@H](Cc2ccc(O)cc2)NC(=O)[C@H](CCC(N)=O)NC(=O)c2cc([N+](=O)[O-])cc(I)c2NCC[C@@H](C(N)=O)NC1=O | 12%
43 | C/C(=N\NC(=O)CCc1c[nH]c2ccccc12)c1ccc([N+](=O)[O-])cc1 | -11.7%
44 | COc1cc(NC(=O)c2ccc3c(c2)OCO3)ccc1NC(=O)c1cccs1 | 8.76%
45 | COc1cccc(NC(=O)OCCN2CCN(Cc3ccccc3)CCC2=O)c1 | -2.27%
46 | COc1ccc(NC(=O)/C(C#N)=C/c2ccc(Sc3nncn3C)c([N+](=O)[O-])c2)cc1 | 12.6%
47 | O=C(Nc1ccc(N2CCN(C(=O)c3cccs3)CC2)c(Cl)c1)c1ccco1 | -0.604%
48 | C=CCn1c(CSc2nc3ccccc3s2)nnc1SCC(=O)NCCN1CCOCC1 | 1.08%
49 | Cc1ccc(NC(=O)C2CCCN(S(=O)(=O)c3c(C)noc3/C=C/N(C)C)C2)c(C)c1 (stereo not shown) | 7.79%
50 | O=C(c1ccc(Cl)cc1)c1oc2ccccc2c1CS(=O)c1ccc(Cl)cc1 (stereo not shown) | -2.3%
51 | Cc1ccc(Nc2nc(NCCO)nc(N3CCCC3)n2)cc1 | 0.0745%
52 | CC(C)Cc1ccc(S(=O)(=O)N2CCOCC2)cc1 | -10%
